Data: the supplement of paper PMC4723716
± gives the uncertainty stated by the source. Whole data set: some 9,900 compounds, median “viability index relative to DMSO control” near 1, cut for the lowest 2% near 0.85. The list shows a part of the results.

system: Plasmodium falciparum NF54 stage V gametocytes; test: viability index relative to DMSO control (fraction); higher = less gametocyte killing; conditions: 2.5 µM, library set: Broad Institute DOS, incubation time: 72 h
Summary of the method: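 Compound at 2.5 µM was incubated for 72 hr at 37°C under low oxygen with P. falciparum NF54 stage V gametocytes (0.75% gametocytemia, 1.25% hematocrit, 10 µl, serum-free screening medium) in 1,536-well plates. Staining used 3 µl of 2.5 µM MitoTracker Red CMXRos plus 0.13% saponin for one to two hours, and red particles of 20–70 µm2 were counted in one imaged field per well. Each viability index is that count relative to the plate mean of solvent-only wells.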

**Q.** How did the viability index turn out when `COc1ccc(CNC(=O)N(C)C[C@H]2OCc3ccccc3-c3c(n(C)c4ccccc34)C(=O)N([C@H](C)CO)C[C@H]2C)cc1` was run?
**A.** 0.88341 ± 7.6e-05

**Q.** With `CO[C@@H](CN(C)S(=O)(=O)c1cn(C)cn1)[C@H](C)CN(C(=O)Nc1ccc(C(F)(F)F)cc1)[C@@H](C)CO` as the compound, how does the viability index read?
**A.** 0.954 ± 0.012

**Q.** How did the viability index turn out when `CS(=O)(=O)N1CC(=O)N2[C@H](CO)[C@@H](c3ccc(C#CCC4CCCC4)cc3)[C@H]2C1` was run?
**A.** 0.982 ± 0.061

**Q.** For `CCCC(=O)Nc1ccc2c(c1)OC[C@@H](C)N(CC1CCOCC1)C[C@H](C)[C@@H](OC)CN(C)C2=O`, which viability index is on record?
**A.** 1.04 ± 0.06

**Q.** Which viability index does the source give for `COCCNC(=O)C[C@H]1C[C@@H]2c3cc(NC(=O)CN(C)C)ccc3O[C@@H]2[C@@H](CO)O1` here?
**A.** 1.06 ± 0.018

**Q.** `CO[C@@H]1CN(C)C(=O)c2cc(NC(=O)c3nc4ccccc4s3)ccc2OC[C@H](C)NC[C@@H]1C` was tested. Which viability index did it give?
**A.** 1.01 ± 0.034

**Q.** For `CC(C)C[C@@H]1COCc2cn(nn2)CC[C@H](C)C(=O)N1`, which viability index is on record?
**A.** 1.097 ± 0.0051

**Q.** How did the viability index turn out when `CCNC(=O)C[C@H]1CC[C@H]2[C@@H](COC[C@@H](O)CN2C(=O)c2ccccn2)O1` was run?
**A.** 1.11 ± 0.059

**Q.** How did the viability index turn out when `COc1ccc(NC(=O)N2C[C@@H]3[C@H](c4ccccc42)[C@@H](CO)N3Cc2ccccn2)cc1` was run?
**A.** 1.043 ± 0.0079

**Q.** With `C[C@@H]1CCCCO[C@@H](CN(C)Cc2ccc(C(=O)O)cc2)[C@@H](C)CN([C@H](C)CO)C(=O)c2cc(N(C)C)ccc2O1` as the compound, how does the viability index read?
**A.** 1.18 ± 0.13

**Q.** Which viability index does the source give for `COCC(=O)N1[C@H](CO)[C@H](c2ccccc2)C12CN(C(=O)c1ccccc1)C2` here?
**A.** 0.986 ± 0.058

**Q.** For `COc1ccc(S(=O)(=O)Nc2cccc3c2O[C@@H](CN(C)CC2CCCCC2)[C@H](C)CN([C@H](C)CO)C3=O)cc1`, which viability index is on record?
**A.** 0.958 ± 0.094

**Q.** How did the viability index turn out when `CN1c2ccc(C3=CCCCC3)cc2[C@H]2[C@H](CCN2C(=O)Cc2ccccn2)[C@@H]1CO` was run?
**A.** 0.947 ± 0.037

**Q.** Which viability index does the source give for `CNC(=O)C[C@H]1CC[C@H]2[C@@H](COC[C@H](O)CN2Cc2ccccc2F)O1` here?
**A.** 1.1 ± 0.062

**Q.** With `COCC(=O)N1CC(=O)N2[C@@H](CO)[C@@H](c3ccc(C#CC4CC4)cc3)[C@@H]2C1` as the compound, how does the viability index read?
**A.** 1.08 ± 0.052

**Q.** How did the viability index turn out when `C[C@@H]1CN([C@@H](C)CO)C(=O)c2ccccc2-c2ccccc2CO[C@@H]1CN(C)C(=O)Nc1cccc(Cl)c1Cl` was run?
**A.** 0.946 ± 0.053

**Q.** With `COCC#Cc1ccc([C@@H]2[C@H](CO)N3C(=O)CN(C(=O)Nc4ccccc4F)C[C@@H]23)cc1` as the compound, how does the viability index read?
**A.** 1.06 ± 0.026

**Q.** For `C[C@@H]1COCc2cnnn2CC[C@H](Cc2ccccc2)C(=O)N1`, which viability index is on record?
**A.** 1.0025 ± 0.001

**Q.** For `COc1cccc(-c2ccc3c(c2)O[C@@H](CN(C)Cc2cccnc2)[C@@H](C)CN([C@@H](C)CO)S3(=O)=O)c1`, which viability index is on record?
**A.** 1.101 ± 0.0046

**Q.** `CCCC#Cc1cnc2c(c1)C(=O)N([C@H](C)CO)C[C@H](C)[C@H](CN(C)C(=O)Nc1cc(F)ccc1F)O2` was tested. Which viability index did it give?
**A.** 1.02 ± 0.081
